According to paper PMC4336329 (PLoS ONE, 2015):
About 14,000 (4.5%) of roughly 310,000 compounds showed an effect of 50% or more. The effect is printed as a negative number. Some of the results follow.

target: human ether-à-go-go-related gene (hERG) potassium channel (human, UniProt Q12809); assay: primary screen, population patch clamp on CHO cells stably expressing hERG
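Further: peak tail current of the secondary pulse compared with the same well before compound.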

human ether-à-go-go-related gene (hERG) potassium channel, sequence (Q12809 whole entry, looked up): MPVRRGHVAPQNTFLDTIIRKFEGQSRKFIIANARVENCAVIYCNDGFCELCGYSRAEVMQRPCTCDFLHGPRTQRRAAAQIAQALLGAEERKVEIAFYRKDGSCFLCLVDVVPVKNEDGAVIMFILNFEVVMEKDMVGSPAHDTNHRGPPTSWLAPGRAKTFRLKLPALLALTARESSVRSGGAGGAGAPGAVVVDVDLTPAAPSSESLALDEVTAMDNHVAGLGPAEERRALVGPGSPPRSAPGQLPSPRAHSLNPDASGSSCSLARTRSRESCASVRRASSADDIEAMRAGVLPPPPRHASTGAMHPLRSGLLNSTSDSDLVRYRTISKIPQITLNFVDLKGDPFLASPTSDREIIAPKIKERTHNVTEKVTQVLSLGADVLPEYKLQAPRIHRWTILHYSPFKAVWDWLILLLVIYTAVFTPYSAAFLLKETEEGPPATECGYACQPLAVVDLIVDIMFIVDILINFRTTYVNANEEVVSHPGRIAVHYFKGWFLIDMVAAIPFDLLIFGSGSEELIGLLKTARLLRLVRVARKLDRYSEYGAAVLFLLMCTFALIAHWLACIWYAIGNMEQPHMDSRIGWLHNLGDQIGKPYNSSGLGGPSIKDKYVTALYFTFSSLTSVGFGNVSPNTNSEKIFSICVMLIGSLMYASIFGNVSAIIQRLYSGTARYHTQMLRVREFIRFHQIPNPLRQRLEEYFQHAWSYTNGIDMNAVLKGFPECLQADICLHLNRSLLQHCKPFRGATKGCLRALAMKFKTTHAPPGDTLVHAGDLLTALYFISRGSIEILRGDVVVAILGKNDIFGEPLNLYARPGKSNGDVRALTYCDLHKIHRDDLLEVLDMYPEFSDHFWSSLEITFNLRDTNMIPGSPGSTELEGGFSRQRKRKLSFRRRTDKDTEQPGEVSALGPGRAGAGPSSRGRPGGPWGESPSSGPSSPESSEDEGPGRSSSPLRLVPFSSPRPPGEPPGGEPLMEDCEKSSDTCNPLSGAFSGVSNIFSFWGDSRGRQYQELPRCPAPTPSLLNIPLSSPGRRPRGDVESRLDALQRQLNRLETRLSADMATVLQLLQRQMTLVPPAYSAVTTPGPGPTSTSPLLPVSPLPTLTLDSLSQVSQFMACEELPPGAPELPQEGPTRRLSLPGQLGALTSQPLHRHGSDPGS

Structure (SMILES)	hERG current change (%, negative = inhibition) at 10uM [%]
C/C(CC(=O)Nc1ccc(Br)cc1)=N\NC(=O)c1cccc(O)c1	-4.77
CC(C)(C)NC(=O)NC(=O)CN1CCN(C(c2ccccc2)c2ccccc2)CC1	-5.23
O=C(CN1C(=O)N/C(=C\c2ccccc2OCc2ccc(C(=O)O)cc2)C1=O)Nc1ccccc1F	-15.8
O=C(NCc1ccco1)Nc1ccc(OC(F)(F)F)cc1	-18
CCC(=O)Nc1cccc(NC(=O)CN2CCN(c3ccccc3OC)CC2)c1	-1.45
COc1ccc(/C=C(\C#N)C(=O)OCC(=O)Nc2c(C)cccc2C)cc1	0.785
Cc1ccc2sc(N(CCCN(C)C)C(=O)c3ccc(Br)s3)nc2c1C.Cl	-71.7
CCOCCCNC(=S)NCCCNc1nc2ccc(C)cc2cc1C#N	10.6
CCOC(=O)N1CCN(C(=O)CSc2nc(=O)n3ccc(C)cc3n2)CC1	5.4
CN(C)CC#CCOCCOCCC#N	15.2
O=C(CO/N=C1\CCCc2nonc21)Nc1ccccc1Cl	-10.4
CCS(=O)(=O)c1nc(S(=O)(=O)c2ccc(C)cc2)c(N2CCCC(C)C2)s1 (stereo not drawn)	2.07
Cc1ccccc1-n1c(=O)cc(N2CCC3(CC2)OCCO3)[nH]c1=O	8.66
CC(C)C1CC(CCN)(Cc2ccccc2)CCO1.Cl (stereo not drawn)	4.39
CN(C)/C(=N\OC(=O)c1ccccc1)c1nonc1N	4.43
Cc1ccccc1NS(=O)(=O)c1cc(C(=O)Nc2cccc([N+](=O)[O-])c2)ccc1C	-5.23
COc1ccc(-c2noc(CCC(=O)NC3CCCC3)n2)cc1	-4.15
CCc1nnc(NC(=O)CSc2nnc(-c3c[nH]c4ccccc34)n2CC)s1	-20.3
CCOC(=O)N1CCN(C(=O)C2CCN(CC3CCCCC3)CC2)CC1.O=C(O)C(=O)O	-0.91
Cc1ccccc1C1CC(=O)NC2=C1C(=O)CCC2 (stereo not drawn)	17.5
CC(C)(C)c1ncc(S(=O)(=O)c2ccc(C(F)(F)F)cn2)c(N)n1	3.41
CC1CC(C)CN(CCCNC(=O)c2cc3c(s2)-c2ccccc2OC3)C1 (stereo not drawn)	-70.2

Structure (SMILES)	hERG current change (%, negative = inhibition) at 10uM [%]
N/C(=C\C(=O)c1cc(Cl)ccc1O)C(Cl)(Cl)Cl	2.52
Cc1cc(C)c2oc(C(=O)N3CCN(C)CC3)cc(=O)c2c1	5.93
COc1ccc(C(=O)NC(=S)N2CCN(c3ccccc3OC)CC2)cc1	-21.6
C=CCNc1nc(-c2ccc(Cl)cc2)cs1	0.699
Cc1nnc(SCc2cc(=O)[nH]c(/N=C(\N)Nc3ccccc3)n2)s1	-10
COc1ccc(/C(CC2(O)C(=O)Nc3ccccc32)=N\O)cc1 (stereo not drawn)	14.5
CCOC(=O)N1CCN(C(=O)CSc2nnc(-c3cc(OC)cc(OC)c3)o2)CC1	-6.16
CCc1ccccc1SCc1noc(C(=O)NCC2CCCO2)c1C(=O)O (stereo not drawn)	2.36
CC(O)c1ccc(-n2cnnn2)cc1 (stereo not drawn)	20
C=CCNC(=O)C1CC2Cn3c(nc4ccccc43)C2N1C (stereo not drawn)	8.22
CC1(C)Oc2ccc(C(=O)NC3CCCCC3)cc2N(CC#N)C1=O	10.6
OCC[C@@H]1C[C@@H](O)[C@H](O)[C@@]2(Cc3ccccc3O2)O1	9.59
Cc1onc(-c2ccccc2)c1C(=O)NCc1cccnc1	10.8
CSc1nc2[nH]ncc2c(=O)n1-c1ccccc1	23.6
Cc1cc(C)c(C#N)c(SCc2[nH]nc3c2C(c2ccc(F)cc2)C(C#N)=C(N)O3)n1 (stereo not drawn)	4.76
O=C(c1ccccc1)N1CCN(c2ccc([N+](=O)[O-])c(NCc3cccnc3)c2)CC1	-69.7
COc1ccc(-c2nnc(SCC(=O)Nc3cc(S(=O)(=O)N4CCCCC4)ccc3Cl)n2N)cc1	-34
CN1Cc2c(N3CCOCC3)nc(SCCC#N)c(C#N)c2CC1(C)C	-2.45
Cc1[nH]n2c(=O)c3c(nc2c1-c1ccc(Cl)cc1)CCC3	6.72
Cl.NCCOc1ccccc1-c1ccccc1	-11.1
COc1ccc2oc(C(=O)OC(C)C(=O)N3CCC(C)CC3)c(C)c2c1 (stereo not drawn)	-5.44
Cc1cccc(N2CC(C(=O)O)CC2=O)c1C (stereo not drawn)	12.9

Structure (SMILES)	hERG current change (%, negative = inhibition) at 10uM [%]
Cc1cc(OCC(F)(F)C(F)(F)C(F)(F)C(F)(F)C(F)(F)C(F)F)nc(N)n1	8.6
CCCNC(=O)NC(=O)CSc1ccc(C)cc1C	13.4
CCOC(=O)/C(=N/Nc1ccccc1)Sc1nnc(CCc2ccccc2)n1-c1ccccc1	4.71
CCCn1nnc(NC(=O)/C=C/c2ccc(C(C)C)cc2)n1	0.724
COc1ccc(C=O)cc1Cn1c(=O)n(CCC(=O)NCc2ccco2)c(=O)c2sccc21	-2.3
O=C(Nc1ccc(Br)cc1)c1cc(S(=O)(=O)Nc2ccccn2)ccc1Cl	15.3
CCCn1c(/N=C/c2c[nH]c3ccccc23)nc2ccccc21	-6.18
O=C(O)CCc1nn2c3ccccc3n(CC(=O)O)c2nc1=O	1.48
COc1ccc(-n2c(=O)c3ccccc3n(CC(=O)NC3CCCC3)c2=O)cc1	10.7
CNC(=S)N(CCc1cccc(C)c1)Cc1cc2cc(OC)c(OC)cc2[nH]c1=O	-16.7
C=CCN1C(=O)c2ccc(C(=O)N(C)CC(=O)Nc3c(C)cccc3C)cc2C1=O	15.4
CC(C)c1ccc(/C=N/n2c(COc3ccccc3)n[nH]c2=S)cc1	11.7
O=C1C2CCCN2c2ccc(S(=O)(=O)N3CCOCC3)cc2N1Cc1cccc(C(F)(F)F)c1 (stereo not drawn)	7.28
CC(C(=O)Nc1ccc2[nH]c(=O)[nH]c2c1)N1CCN(Cc2ccc3c(c2)OCO3)CC1 (stereo not drawn)	-8.35
COc1ccccc1NC(=O)COC(=O)Cc1c[nH]c2ccccc12	-2.78
CCN(CC(=O)NCc1cccs1)C(=O)c1ccc(S(=O)(=O)Nc2ccccc2)cc1	-15.6
CCOC(=O)C(CC)/C(C)=N\NC(=O)c1cccc(C)c1 (stereo not drawn)	35.5
CC(C)n1c(SCC(=O)Nc2ccc3c(c2)OCO3)nc2c1c(=O)n(C)c(=O)n2C	1.22
Cc1ccc(-c2nc3ccccc3s2)cc1NC(=O)c1ccc2c(c1)OCO2	14.5
O=C1C(Cl)=C(N2CCOCC2)C(=O)N1c1cccc(C(F)(F)F)c1	17.3
CCOc1ncccc1C(=O)Nc1cc(S(=O)(=O)N2CCCCC2)ccc1C	4.21
COc1ccc(CN2C(=O)c3oc4ccccc4c(=O)c3C2c2ccc(O)c(OC)c2)cc1 (stereo not drawn)	4.88

Structure (SMILES)	hERG current change (%, negative = inhibition) at 10uM [%]
COC(=O)c1c(C)[nH]c(/C=N/Nc2ccccc2)c1C	6.93
CC1CC1C(=O)N1CCN(S(=O)(=O)c2cccc(F)c2)CC1 (stereo not drawn)	17.3
Cc1ccc(C(=O)O)cc1Nc1ncnc2sc3c(c12)CCC3	8.51
Cc1ccccc1N(C(=O)c1snc(C(N)=O)c1N)C(C(=O)NCc1ccccc1)c1ccc(O)cc1 (stereo not drawn)	19.5
CCc1ccc2c(c1)C(=O)c1ccccc1C2=O	14
Cc1cccc(CSc2nnc([C@@H]3CCCN3C(=O)OC(C)(C)C)o2)c1	4.85
Cc1nn(-c2ccccc2)c(N2CCCC2)c1/C=N/NC(=O)c1cc(-c2cccnc2)nc2ccccc12	-12.2
CC(C)CNC(=O)c1cc2nc3c(c(C(F)(F)F)n2n1)CCc1ccccc1-3	3.29
CCN(CC)c1ncc(C)c(=O)[nH]1	10.1
CN(CCC#N)C(=O)c1cc2c(s1)-c1ccccc1SC2	-8.88
Cc1[nH]cnc1C(=O)N/N=C/c1ccc([N+](=O)[O-])s1	5.2
CCCn1nnc2sc3c(c2c1=O)CCC(C)C3 (stereo not drawn)	-6.6
O=c1cc(-c2ccc(O)cc2)oc2cc(O[C@@H]3O[C@H](CO)[C@@H](O)[C@H](O)[C@H]3O[C@@H]3OC[C@](O)(CO)[C@H]3O)cc(O)c12	12.5
COc1ccc(C(=O)CC(SCC(NC(C)=O)C(=O)O)c2ccc(Cl)cc2)cc1OC (stereo not drawn)	7.24
O=C(Nc1ccccc1Cl)c1ccc(-c2ccccn2)s1	1.03
CC(C)N(C(=O)Cn1cc(SCC(=O)NCc2ccco2)c2ccccc21)C(C)C	-23
CCS(=O)(=O)N1CCCC(C(=O)NCCc2ccc(C)cc2)C1 (stereo not drawn)	-4.48
CCN1CCCC1CNC(=O)c1cc(COc2ccc(C)c(C)c2)on1 (stereo not drawn)	-65.2
Cc1ccc(S(=O)(=O)CCC(=O)OCC(=O)N2CCN(c3ccccc3)CC2)cc1	-18.1
O=S(=O)(c1cccc(-c2cn3cc(Cl)ccc3n2)c1)N1CCOCC1	-23.1
C[C@H](NC(=O)CCC(=O)N1C[C@H]2C[C@H](C1)c1cccc(=O)n1C2)c1ccccc1	2.4
